# Results from PubChem BioAssay AID624296 (National Center for Advancing Translational Sciences (NCATS), 2012).
# Out of some 350,000 compounds screened, about 9,900 (2.8%) were called active. Inconclusive results, whose numbers are uncertain, are shown with a selection of clear calls. Calls come from the whole dose curve; as a rule, active = well fitted activation curve with a large enough effect; inconclusive = small, poorly fitted or top-dose-only effect; inactive = no such curve, though single readings can be large or run the other way. Potencies of inconclusive entries are left out as doubtful fits.
# Test: A quantitative high throughput screen for small molecules that induce DNA re-replication in MCF 10a normal breast cells. Note: nearly all actives have a fitted effect of over 50% in size.
# Conditions: MCF 10A DNA re-replication, Hoechst nuclear intensity, 48 h; series mostly up to 46.1 µM
# Potency is the fitted concentration of half-maximal effect; tags give direction and shape of the fitted curve.
row,Structure (SMILES),Potency
1,NC(=S)N/N=C/c1ccc(-n2nncc2-c2ccc(Cl)cc2)cc1,"inconclusive [activator, single point]"
2,CC(C)CNC(=O)c1cccc(NC(=O)c2ccc(Cl)c([N+](=O)[O-])c2)c1,"inconclusive [activator, single point]"
3,S=C(Nc1ccccc1)N1CCCCCCC1,inactive
4,O=C(O)c1ccc(N/N=C/c2cc3ccccc3nc2Cl)cc1,active: 8.2 µM
5,COCCN(C(=O)COC(=O)/C=C/c1nc2ccccc2s1)c1c(N)n(Cc2ccccc2)c(=O)[nH]c1=O,"inconclusive [activator, single point]"
6,COc1ccc(NC(=S)NCCCn2ccnc2)cc1,inactive
7,COC(=O)c1ccc(Oc2coc3cc(OCc4ccc([N+](=O)[O-])cc4)ccc3c2=O)cc1,"inconclusive [activator, single point]"
8,CCCCNC(=S)N(CCN(CC)CC)Cc1cc2cc3c(cc2[nH]c1=O)OCCO3,"inconclusive [activator, single point]"
9,O=C(COC(=O)CC1CCCC1)Nc1ccc(Br)cc1F,inactive
10,Cc1ccccc1Cc1c(C)nc2nc(SCC(=O)NCc3ccco3)nn2c1C,"inconclusive [activator, partial curve, poor fit]"
11,O=C(CN1C(=O)/C(=C/c2ccccc2F)Sc2ccccc21)N1CCN(c2ccccn2)CC1,"inconclusive [activator, single point]"
12,CCOC(=O)C1=C(C)N=c2s/c(=C/c3cccc([N+](=O)[O-])c3O)c(=O)n2C1c1cc(OC)c(OC)c(OC)c1 (stereo unspecified),"inconclusive [activator, single point]"
13,NC(=O)CSc1nnc(-c2cc3ccccc3o2)n1Cc1ccccc1,inactive
14,O=C(NCCCN1CCOCC1)c1cn(-c2ccccc2)nc1-c1ccc(F)cc1,inactive
15,Cc1[nH]n(C)c(=O)c1C(=O)c1c(-c2c(Cl)cccc2Cl)noc1C,"inconclusive [activator, partial curve, poor fit]"
16,CCN1CCN(S(=O)(=O)c2ccc(Cl)c(C(=O)Nc3ccccc3N3CCCCC3)c2)CC1,"inconclusive [activator, partial curve, poor fit]"
17,CC(/C=N/NC(=O)Cc1cccs1)=C\c1ccccc1,"inconclusive [activator, single point]"
18,COc1ccc(-c2nn(-c3ccccc3)cc2CNC[C@H]2O[C@@H](n3cnc(C(N)=O)n3)[C@H](O)[C@@H]2O)cc1,"inconclusive [activator, partial curve, poor fit]"
19,CC(C)COc1ccc(CSCCNC(=S)Nc2ccccc2)cc1,"inconclusive [activator, single point]"
20,CN(C)S(=O)(=O)c1ccc(C(=O)Oc2cc(=O)[nH]c3ccccc23)cc1,active: 6.51 µM
21,C=CCn1c(SCC(=O)N2CCCC2)nc2scc(-c3cccs3)c2c1=O,"inconclusive [activator, partial curve]"

row,Structure (SMILES),Potency
1,COc1cc(OC)cc(C(=O)N[C@H](C(=O)OCC(=O)Nc2ccc(C)cc2C)C(C)C)c1,inactive
2,CC(C)(C)c1ccc(/C=C/C(=O)Nc2cccnc2)cc1,"inconclusive [activator, single point]"
3,CC(=O)/C(=N/Nc1cccc(Cl)c1)Sc1nnc(C(O)c2ccccc2)n1-c1ccccc1 (stereo unspecified),inactive
4,Cc1ccc2[nH]c(C)c(/C=N/Nc3nc4ccccc4s3)c2c1,"inconclusive [activator, single point]"
5,CCCc1ccc(-c2cc(NC(=O)CSc3nnc(N)s3)n(-c3ccccc3)n2)cc1,"inconclusive [activator, single point]"
6,COc1cccc(C(=O)N/N=C/c2ccc(Oc3ccc([N+](=O)[O-])cn3)c(OC)c2)c1,"inconclusive [activator, single point]"
7,O=C(COc1ccccc1-c1ccccc1)N/N=C/c1ccccn1,"inconclusive [activator, single point]"
8,COc1ccc(-c2csc3ncnc(N4CCN(c5cccc(Cl)c5)CC4)c23)cc1,"inconclusive [activator, full curve, poor fit]"
9,O=C(NNc1ccccc1)C(=O)NNS(=O)(=O)c1ccc(CCCl)cc1,"inconclusive [activator, partial curve, poor fit]"
10,COc1ccc(OC)c(C(=O)/C=C/c2ccccc2C(F)(F)F)c1,"inconclusive [activator, single point]"
11,Cc1ccc(S(=O)(=O)Nc2cc(Cl)c(O)c3ncccc23)cc1,"inconclusive [activator, single point]"
12,Cc1c(CCOC(=O)C23CC4(C)CC(C)(CC(C)(C4)C2)C3)sc[n+]1CC(=O)c1ccccc1,"inconclusive [activator, single point]"
13,CCCC1(CCC)NC(=O)N(CC(=O)N2CCc3ccccc32)C1=O,inactive
14,O=C(N/N=C/c1ccc(O)cc1O)c1ccc(NC(=O)C2CCCCC2)cc1,"inconclusive [activator, single point]"
15,Cc1cccc(N2CC(C(=O)OCC(=O)c3c(N)n(CC(C)C)c(=O)n(C)c3=O)CC2=O)c1C (stereo unspecified),"inconclusive [activator, partial curve, poor fit]"
16,COc1ccc(NS(=O)(=O)c2cccc(NC(=O)C3=NN(c4ccccc4)C(=O)CC3)c2)cc1,inactive
17,COc1ccc(S(=O)(=O)N(C)CC(=O)Nc2c(F)cccc2F)cc1,active: 8.2 µM
18,Cc1ccc(C(F)(F)F)cc1NC(N)=S,"inconclusive [activator, partial curve, poor fit]"
19,CC(C)(c1ccccc1)c1ccc(OCCCN2CCNCC2)cc1,"inconclusive [activator, full curve, poor fit]"
20,CC(C)c1cc(-c2cc(C(=O)Nc3ccccc3)on2)nc(NC2CCCC2)n1,"inconclusive [activator, full curve, poor fit]"
